The least precise scores are not listed. Two further conditions of the source, in which the scores hardly spread, are not listed. Read del as a deletion of the residues named and ins as an insertion between two positions. For some assays here: How much ogerin was present is not stated here.
B1: GPR68, Q15743 (parent)
chain: MGNITADNSSMSCTIDHTIHQTLAPVVYVTVLVVGFPANCLSLYFGYLQIKARNELGVYLCNLTVADLFYICSLPFWLQYVLQHDNWSHGDLSCQVCGILLYENIYISVGFLCCISVDRYLAVAHPFRFHQFRTLKAAVGVSVVIWAKELLTSIYFLMHEEVIEDENQHRVCFEHYPIQAWQRAINYYRFLVGFLFPICLLLASYQGILRAVRRSHGTQKSRKDQIQRLVLSTVVIFLACFLPYHVLLLVRSVWEASCDFAKGVFNAYHFSLLLTSFNCVADPVLYCFVSETTHRDLARLRGACLAFLTCSRTGRAREAYPLGAPEASGKSGAQGEEPELLTKLHPAFQTPNSPGSGGFPTGRLA

Assays:
[1] = variants of: B1; test: cAMP reporter score (Enrich2 score, wild type = 0); higher = more signal; HEK293T, FACS bins
[2] = variants of: B1; test: surface expression score (Enrich2 score, wild type = 0); higher = more signal; HEK293T, FACS bins

Variant | cAMP reporter score ([1]; pH 5.5) | cAMP reporter score ([1]; pH 6) | cAMP reporter score ([1]; pH 6, modulator: ogerin) | cAMP reporter score ([1]; pH 6.5, modulator: ogerin) | surface expression score [2]
V58R | -1.63 | -0.904 | -1.97 | -1.12 | -2.04
V58S | -2.02 | -0.759 | -1.94 | -1.41 | -1.89
V58T | -1.72 | -1.43 | -1.62 | -1.46 | -2.5
V58W | -0.365 |  | 0.865 |  | -0.211
V58Y | -0.582 | -1.05 | -0.379 | -0.881 | -3.23
V58_L60del | -1.41 | -0.942 | -1.55 | -0.357 | 
V58_Y59insG | -1.61 | -1.13 | -0.953 | -0.587 | -2.55
V58_Y59insGS | -0.425 |  | -0.691 | -2.48 | 
Y59_C61del | -1.46 | -0.636 | -2.54 | -1.29 | -2.67
Y59_L60insGSG | -0.842 | 0.684 | -0.535 | -0.45 | -1.32
C61A | 1.23 |  | -0.005 | 0.091 | -0.213
C61D | -0.239 | -0.913 | -1.65 | -1.45 | -2.73
C61E | -2.1 | -1.63 | -1.67 | 0.468 | -1.54
C61F | -0.614 | -0.467 | -0.161 | -0.263 | 1.11
C61G | -0.583 |  | -1.26 | -0.328 | 
C61I | 1.28 | 1.32 | 1.13 | 1.83 | 2.2
C61K | -1.08 |  | -0.953 | -1.98 | 
C61L | 1.21 | -0.487 | 0.232 | 0.371 | 1.42
C61M | -0.026 | 0.22 | 0.124 | -0.361 | 0.756
C61N | -1.72 | -1.05 | -1.39 | -0.937 | 
C61P | -1.7 | -1.59 | -2.13 | -0.844 | -2.17
C61Q | -0.565 | -0.805 |  |  | -2.71

Variant | cAMP reporter score ([1]; pH 5.5) | cAMP reporter score ([1]; pH 6) | cAMP reporter score ([1]; pH 6, modulator: ogerin) | cAMP reporter score ([1]; pH 6.5, modulator: ogerin) | surface expression score [2]
C61R | -1.17 | -1.37 | -1.14 | -1.04 | -2.06
C61S | -0.725 | -0.776 | -1.01 | -1.05 | 
C61T | -0.155 | -0.498 | -0.098 | -0.554 | -0.605
C61V | 0.347 | 3.09 | 0.699 | 2.2 | 1.87
C61W | -0.119 | -0.136 | 0.323 | 0.516 | -0.364
C61Y | -0.982 | -0.971 | -1.11 | -1.14 | -0.99
C61_N62insG | -0.761 | -0.848 | -1.77 | -1.65 | -1.74
N62A | 0.284 | -0.017 | 0.402 | 0.203 | 1.1
N62C | 0.742 | 1.28 | 1.46 | 2.51 | 1.66
N62D | -0.752 | -0.441 | -0.829 | -0.627 | -0.683
N62E | -0.23 |  | -0.873 | 0.176 | -2.35
N62F | -0.299 | -1.07 | -0.095 | -0.997 | 0.212
N62G | 1.96 | 1.74 | 1.08 | 1.38 | 
N62H | -0.933 | -0.708 | -1.77 | -1.02 | -2.15
N62I | -1.08 | -0.952 | -2.1 | -0.747 | -2.67
N62K | -2.26 |  | -2.21 | -0.418 | -2.25
N62L | -1.21 | -0.572 | -0.868 | -1.14 | -1.94
N62M | 0.345 | 0.604 | 1.43 | 1.57 | 2.24
N62Q | -0.04 | -1.32 | -0.416 | -1.09 | 0.052
N62R | -0.448 |  | -0.651 | -0.424 | 
N62S | 0.067 | -0.839 | 0.463 | 0.156 | 1.08
N62T | -0.257 | -0.851 | -1.64 | -0.391 | -1.71

Variant | cAMP reporter score ([1]; pH 5.5) | cAMP reporter score ([1]; pH 6) | cAMP reporter score ([1]; pH 6, modulator: ogerin) | cAMP reporter score ([1]; pH 6.5, modulator: ogerin) | surface expression score [2]
N62V | -2.53 |  | -1.31 | -1.26 | -0.872
N62W | -1.35 | -0.81 | -1.02 | -0.844 | -1.55
N62Y | -0.885 |  | -2.95 | -0.785 | -0.446
N62_L63insG | -1.44 | -0.77 | -1.3 | -1.52 | -1.8
N62_L63insGSG | -1.01 | -1.52 | -0.85 | -0.248 | -2.4
N62_T64del | -1.77 | -0.844 | -2.28 | -1.52 | -2.63
L63_T64del | -0.079 | -0.311 | -0.25 | 0.125 | -1.2
L63_T64insG | -0.566 | -0.223 | -0.749 | -0.13 | -2.26
L63_V65del | -1.81 | -2.17 | -1.63 | -0.165 | -3.48
T64_A66del | -0.734 | -0.455 | -1.44 | -0.726 | -2.48
T64_V65insG | -2.13 | -1.28 | -1.45 | -0.678 | -2.51
T64_V65insGSG | -0.512 | 0.381 |  | -1.11 | -3.44
T64del | -1.59 | -1.86 | -1.4 | -0.858 | -1.95
V65_A66insGSG | -1.89 | -2.01 |  | -2.48 | 
V65_D67del | -1.06 | -0.713 | -1.37 | -0.876 | -2.19
V65del | -2.05 | -0.985 | -2.15 | -0.413 | -2.98
A66C | -0.375 |  | -0.645 | -0.892 | 0.981
A66D | -1.79 | -2.43 |  | -1.2 | 
A66E | -1.36 | -0.071 | -0.95 | -1.07 | -1.3
A66F | -1.45 | -0.27 | -1.32 | -0.412 | -1.35

— the GPR68 mutational scans of Howard et al. (2025)
